The source gives no read counts; variants with many changes may rest on few reads.
B1: LINE1-full (parent)
chain: UACGUAGGUGGUUUUCCCCUGAUAGUGCUAAGGGGGCCUGGAAGUUUGGACUGGGCAGAGCUCAACACAGCGUGGCAAAGUGGCUGUGGCUAGACUGCCUCUCUGGAUUCCUCGUCACUCAGCAGGGCAUCUCUGAGAGAAAUGCC

Variants of: B1
Test: self-cleavage, relative activity (ratio to wild type); higher = more cleavage; in vitro, sequencing; the parent is a self-cleaving ribozyme
Variant UACGUAGGUGGUUUUCCCCUGGUAGUGCUAAGGGGGCCUGGAAGUUUGGACUGGGCAGAGCUCAACACAGCGUGGCAAAGUGGCUGAGGCUAGACUGCCUCUCUGGAUUCCUCGUCACUCAGCAGGGCAUCUCUGAGAGAGAUGCC [A22G U87A A141G] has a self-cleavage of 0.12. UACGUAGGUGGUUUUCCCCUGUUAGUGCUAAGGGGGCCUGGUAGUUUGGACUGGGCAGAGCUCAACACAGCGUGGCAAAGUGGCUGUGGCUAGACUGCCUCUCUGGAUUCCUCGUCACUCAGCAGGGCACCUCUGAGAGAAAUGCC [A22U A42U U130C] gave a self-cleavage of 1.37. UACGUAGGUGGUUUUCCCCUGUUAGUGCUAAGAGGGCCUGGAGGUUUGGACUGGGCAGAGCUCAACACAGCGUGGCAAAGUGGCUGUGGCUAGACUGCCUCUCUGGAUUCCUCGUCACUCAGCAGGGCAUCUCUGAGAGAAAUGCC [A22U G33A A43G] gave a self-cleavage of 1.26. In the case of UACGUAGGUGGUUUUCCCCUGUUAGUGCUAAGGGGGCCUGGAAGUUUGGACUGGGCGGAGCUCAACACAGCGCGGCAAAGUGGCUGUGGCUAGACUGCCUCUCUGGAUUCCUUGUCACUCAGCAGGGCAUCUCUGAGAGAAAUGCC [A22U A57G U73C C113U], the self-cleavage is reported as 0.87. UACGUAGGUGGUUUUCCCCUGUUAGUGCUAAGGGGGCCUGGAGGUUUGGACUGGGCAGAGCUCAACACAGCGUGGCAAAGUGGCUGUGGCUAGACUGCCUCUCUGAAUUCCUCGUCUCUCAGCAGGGCAUCUCUGAGAGGAAUGCC [A22U A43G G106A A117U A140G] showed a self-cleavage of 0.64. Variant UACGUAGGUGGUUUUCCCCUGUUAGUGCUAAGGGGGCCUGGAAGUUUGGACUGGGCAGAGCUCUACACAGCGUGGCAAAGUGGCUGUGACUGGACUGCCUCUCUGGAUUCCUCGUCACUCUGCAGGGCAUCUCUGAGAGAAAUGCC [A22U A64U G89A A92G A121U] has a self-cleavage of 0.03. In the case of UACGUAGGUGGUUUUCCCCUGUUAGUGCUAAGGGGGCCUGGAAGUUUGGACUGGGCAGCGCUCAACACAGCGUGGCAAAGUGGCUGUGGCUAGAUUGCCUCUCUGGAUUCCUCGUCACUCAGCAGGGCAUCUCUGAGAGAAAUGCC [A22U A59C C95U], the self-cleavage is reported as 0.16. With UACGUAGGUGGUUUUCCCCUGGUAGUGCUAAGGGGGCCUGGAAGUUUGGACUGGGCAGAGCUCAACACAGCGGGGCAAAGUGGCUGUGGCUAGACAGCCUCUCUGGAUUCCUCGUCACUCAGCAGGGCAUCUCUGAGAGAAAUGCC [A22G U73G U96A] the self-cleavage was 0.1. For UACGUAGGUGGUUUUCCCCUGGUAGUGCUAAGGGGGCCUGGAAGUUUGGACUGGGCAGAGCUCAACACAGCGUGGCAAAGUGGCUGUGGCUAGACCGCCUCUCUGGAUUCCUCGUCACUCAGCAGGGCAUCUCUGAGUGAAAUGCC [A22G U96C A138U], the self-cleavage was 0. Work on UACGUAGGUGGUUUUCCCCUGGUAGUGCUAAGGGGGCCUGGAAGUUUGGACUGGGCAGAGCUCAACACAGCGCGGCAAAGUGACUGUGGCUAGACUGCCUCUCUGGAUUCCUCGUCACUCAGCAGGGCAUCUCUGAGUGAAAUGCC [A22G U73C G83A A138U] yielded a self-cleavage of 1.32. For UACGUAGGUGGUUUUCCCCUGGUAGUGCUAAGGGGGCCUGGAAGUUUGGACUGGGCAGAGCUCAACACAGCGCGGCAAAGUGGCUGAGGCUAGACUGCCUCUCUGGAUUCCUCGUCACUCAGAAGGGCAUCUCUGAGAGAAAUGCC [A22G U73C U87A C123A], the self-cleavage was 0.08. Variant UACGUAGGUGGUUUUCCCCUGUUAGUGCUAAGGGGGCCUGGAAGUUUGGGCUGGGCAGAGCUCAACACAGCGUGGCAAAGUGGCUGUGGCUAGACUGCCUCUCUGGAUUCCUCGUCACUCAGCAGGGCAUCUCUGAGAGGAAUGCC [A22U A50G A140G] has a self-cleavage of 0.65. With UACGUAGGUGGUUUUCCCCUGUUAGUGCUAAGGGGGCCUGGAAGUUUGGACUGGGCAGAGCUCAACACGGCGUGGCAAAGUGGCUGUGGCUAGACUGCCUCUCUGGACUCCUCGUCACUCAGCAGGGCAUCUCUGAGAGAAAUGCC [A22U A69G U108C] the self-cleavage was 0.48. UACGUAGGUGGUUUUCCCCUGGUAGUGCUAAGGGGGCCUGGAAGUUUGGACUGGGCAGAGCUCAACACAGCGUGGCAAAGUGGCUGUGGCUAGACUGCCUCUCUGGAUUCCUCGUCACACAGCAGGGCAUCUCUGAGAGAGAUGCC [A22G U119A A141G] gave a self-cleavage of 1.3. Variant UACGUAGGUGGUUUUCCCCUGGUAGUGCUAAGGGGGCCUGGAAGUUUGGACUGGGCAGAGCUCAACACAGCGUGGCAAAGUGGCUGUGGCUAGACCGCCCCUCUGGACUCCUCGUUACUCAGCAGGGCAUCUCUGAGAGAAAUGCC [A22G U96C U100C U108C C116U] has a self-cleavage of 0.61. In the case of UACGUAGGUGGUUUUCCCCUGUUAGUGCUAAGGGGGCCUGGAAGUUUGGACUGGGCAGAGCUCAACGCAGCGUGGCAAAGUGGCAGUGGCUAGACUGCCUCCCUGGGUUCCUCGUCACUCAGCAGGGCAUCUCUGAGAGAAAUGCC [A22U A67G U85A U102C A107G], the self-cleavage is reported as 0. With UACGUAGGUGGUUUUCCCCUGUUAGUGCUAAGGGGGCCUGGAGGUUUGGACUGGGCAGAGCUCAACACAGCGUGGCAAGGUGGCUGUGGCUAGACUGCCUCUCUGGAUUCCUCGUCACUCAGCAGGGCAUCUCUGAGAGAAAUGCC [A22U A43G A79G] the self-cleavage was 0.48. For UACGUAGGUGGUUUUCCCCUGGUAGUGCUAAGGGGGCCUGGAAGUUUGGACUGGGCAGAGCUCAACACAGCGUGGCAAAGUGGCUGUGGCUAGACUGCCUCUCUGGAUACCUCGUCGCUCAGCAGGGCAUCUCUGAGAGAAAUGCC [A22G U109A A117G], the self-cleavage was 1.11. In the case of UACGUAGGUGGUUUUCCCCUGGUAGUGCUAAGGGGGCCUGGAAGUUUGGACUGGGCAGAGCUCAACACAGCGUGGCAAAGUGGCUGUGGCUAGACAGCCUCUCUGGAUUCCUCGUCACUCAGCAGGGCACCUCUGAGAGAAAUGCC [A22G U96A U130C], the self-cleavage is reported as 0. Variant UACGUAGGUGGUUUUCCCCUGGUAGUGCUAAGGGGGCCUGGAAGUUUGGACUGGGCAGAGCUCAACACAGCGUGGCAAAGUGGCUGUGGCUAGACUGCCUCUCCGGAUUCCUCGUCACUCAGCAGGGCAUCUCCGAGAGAAAUGCC [A22G U104C U134C] has a self-cleavage of 0.85.
